# Measured values published in the supplement of paper PMC3334620.
# Whole data set: some 33,000 sequences, median “E-score (-0.5 to 0.5)” near -0.011, cut for the highest 2% near 0.28. The list shows a part of the results.
# Target: T1, Gcr1 (UniProt P07261)
# T1 sequence: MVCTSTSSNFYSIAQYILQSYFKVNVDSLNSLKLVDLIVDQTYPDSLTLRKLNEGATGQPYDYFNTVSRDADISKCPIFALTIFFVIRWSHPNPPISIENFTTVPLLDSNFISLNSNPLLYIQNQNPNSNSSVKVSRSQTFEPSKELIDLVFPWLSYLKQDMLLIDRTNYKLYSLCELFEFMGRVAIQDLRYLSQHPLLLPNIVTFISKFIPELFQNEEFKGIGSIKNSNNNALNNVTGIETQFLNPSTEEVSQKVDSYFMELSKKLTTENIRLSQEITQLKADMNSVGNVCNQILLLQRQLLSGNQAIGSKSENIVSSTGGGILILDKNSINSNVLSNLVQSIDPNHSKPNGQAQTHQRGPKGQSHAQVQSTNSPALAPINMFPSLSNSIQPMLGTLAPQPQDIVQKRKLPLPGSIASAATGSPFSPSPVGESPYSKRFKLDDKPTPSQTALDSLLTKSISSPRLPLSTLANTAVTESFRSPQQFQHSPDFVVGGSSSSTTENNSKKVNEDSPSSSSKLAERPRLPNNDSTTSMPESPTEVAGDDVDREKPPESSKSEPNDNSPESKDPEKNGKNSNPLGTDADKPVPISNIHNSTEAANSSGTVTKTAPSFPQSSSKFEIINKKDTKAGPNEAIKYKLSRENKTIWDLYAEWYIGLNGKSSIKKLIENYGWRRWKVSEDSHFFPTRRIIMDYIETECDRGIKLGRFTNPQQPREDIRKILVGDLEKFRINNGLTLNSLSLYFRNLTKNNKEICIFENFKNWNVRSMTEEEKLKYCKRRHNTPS
# Assay: PBM E-score (8-mer binding enrichment) (E-score (-0.5 to 0.5)); higher = stronger / more preferred TF binding; most listed sequences are background and not binding sites
# Conditions: protein concentration: 100 nM; construct: GST-full length
# Method in brief: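 Bound GST-tagged yeast transcription factors, applied at about 100-200 nM to double-stranded universal all-10-mer Agilent arrays, were detected with fluorescent anti-GST. Scans were normalised with masliner. A modified Wilcoxon-Mann-Whitney statistic, the E-score, was assigned to each ungapped eight-base word pooled with its reverse complement by the Universal PBM Analysis Suite.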
row,Sequence,PBM E-score
1,CTCGGTAA,-0.22
2,AGATATCT,-0.288
3,AAGAGACT,0.0261
4,CCATTCGG,0.117
5,AACAACAC,0.00299
6,AAGCTTAT,-0.213
7,ACTAGGGA,0.0634
8,ACTACCAT,0.0603
9,AGATGGGC,0.155
10,TAGTAATA,0.221
11,ACGCCGAA,-0.0165
12,ACAAACGC,-0.0152
13,CGAACCCG,0.0105
14,CAATAGGA,0.13
15,AACATTAC,-0.0239
16,CGAAACCA,0.0403
17,ACCGATAT,0.0466
18,CATCAATA,0.185
19,CGTACGTA,0.0529
20,AGCGCAGA,0.0239
21,CGCGAAAC,-0.0979
22,AAACTATT,0.0178
23,GATCCGGC,-0.0058
24,ACGGGCCT,-0.107
25,CAGCCGAA,0.1

row,Sequence,PBM E-score
1,CACGGGAG,-0.0457
2,CGCCGGTA,0.106
3,AATATCGA,0.0225
4,GTTAAGTA,0.111
5,CGCATCCC,0.319
6,CTCATATA,-0.0578
7,ATGAATCC,0.0178
8,CTGATGCA,-0.079
9,AAAACTAA,0.13
10,ATGGTGAA,-0.156
11,GCATTCCA,0.16
12,CCAGTGCG,0.0274
13,CATGTTGC,0.143
14,ATTCCGCC,-0.0712
15,CAAACAGA,-0.0985
16,CGGCTCCA,0.0712
17,ACCAATTC,0.0991
18,CGATGACC,-0.117
19,CGTCCTGC,-0.145
20,ACAGCGAT,-0.086
21,AGTCGCGC,-0.0379
22,CCACTCGG,0.0661
23,TATACGCA,0.285
24,CCGATGAC,-0.0977
25,ATCTTTAG,0.139

row,Sequence,PBM E-score
1,ACAAGCGT,-0.174
2,AATAAGGT,0.155
3,ATGATAAG,0.112
4,ATCTAGGA,0.0629
5,CGATGACG,-0.106
6,ACTCAGTC,-0.0958
7,GCCAGTCA,-0.083
8,CACATCCG,-0.148
9,GAATCCCC,0.0893
10,GCAAGAGC,-0.173
11,AGTGAATC,-0.0635
12,AAGGACCT,0.00148
13,CGGTTAAG,-0.0505
14,CGGTACAG,0.0373
15,CCGATCTC,-0.243
16,AGCTGATC,0.139
17,GCGATTCA,-0.0634
18,CTCTCGAC,-0.229
19,ACGCTCAG,0.117
20,GCAGGGCA,-0.139
21,AAAACATG,0.0161
22,CAGTTACA,0.117
23,GCCCTCTA,0.0535
24,AGCATAAT,-0.00272
25,ATTGGTCA,-0.0559

row,Sequence,PBM E-score
1,AGGAGCGA,-0.201
2,ATCCGGCA,0.114
3,ATGACTAG,-0.0753
4,AATTAGAC,0.222
5,CTCTTGAA,-0.0508
6,CACTGTGA,-0.0508
7,AGATATCG,-0.161
8,AGGGACCG,-0.0809
9,CGACGGGA,0.0384
10,AGTAGTAA,0.0445
11,TCAACGGA,0.0865
12,CAACGATC,-0.269
13,TAGTGGCA,0.289
14,AAAGGCAG,0.071
15,AGTCGAGA,-0.208
16,ATCATCGA,-0.0322
17,ATAGAACG,-0.0396
18,TACGCAAA,-0.134
19,CACGATAA,0.248
20,CATGCCGC,-0.0918
21,CGTTCATA,-0.0211
22,CAACCTGA,0.0194
23,GATCGCGC,-0.153
24,TCCCTAGA,-0.0166
25,AAGAGGCT,0.145

row,Sequence,PBM E-score
1,ACATCTTC,0.114
2,GGTCGGCA,-0.00498
3,AACAAGGA,0.147
4,CCTGGGCG,-0.233
5,GGAGCTCC,0.0925
6,ATTTATCG,0.0757
7,CGAGTGCC,-0.132
8,ACCTGGCC,-0.079
9,CATATACG,0.0883
10,ACGGAAAC,0.159
11,ACCGTTAA,-0.119
12,GAGTTTGA,0.0102
13,TGAAATCA,-0.0173
14,CCGGGTCA,-0.186
15,CACATTTA,-0.00463
16,CAGAAAGA,0.00303
17,CCTAGCTA,0.0429
18,CCTACCAG,-0.108
19,GCATACTA,-0.0175
20,CGACTAAC,0.135
21,GAACCCCA,0.344
22,CGTTTGGC,0.0404
23,ATGGCCGC,-0.0786
24,AGGTTGTG,-0.121
25,CACGTAGA,0.222

row,Sequence,PBM E-score
1,CCCATTCA,-0.0426
2,ACTTGAAA,0.0693
3,ATACAACC,0.0589
4,ACCGATGA,-0.176
5,GGGCAAGA,-0.0914
6,ACTCAGCG,0.00766
7,CTCGCATC,0.0801
8,ATGACCTC,0.0136
9,AATGGTCT,-0.142
10,AGCATGAA,-0.0935
11,ACTATGCG,0.0747
12,GCGTACAA,-0.0517
13,CACGGCTC,0.0065
14,CATGTACA,-0.129
15,CCGTTTAC,0.011
16,CTTCAGAC,-0.187
17,CTATGTTA,0.204
18,GATTAGAA,0.159
19,ATTACTCC,0.077
20,AAGATTGT,-0.0427
21,AAGATTTG,0.0731
22,CAACGTCC,-0.0412
23,GATGATGA,0.019
24,GTAGCCAC,0.147
25,AATTGGCG,0.162

row,Sequence,PBM E-score
1,CCGTGACG,-0.165
2,AACTGCGC,-0.0421
3,AGGGGAAA,0.0362
4,CGCACTTC,0.0702
5,AAATTACA,0.0399
6,CTTATATA,0.0537
7,GCGGCTTA,0.139
8,GTCAAATA,0.0424
9,CCTCGTTA,0.0311
10,CTATTTGC,-0.0505
11,GAGTAGGA,-0.0144
12,CAACTAGA,0.106
13,AAGATATC,-0.155
14,CAAGCACC,0.139
15,CTTACCTA,-0.194
16,GACTCGAC,-0.0543
17,CTCCAAAA,0.0323
18,CGGCTATA,-0.0012
19,AACCCCTT,0.142
20,TCGATTAA,0.0733
21,AGTGCGCC,-0.0405
22,CTTTCAGC,-0.00015
